# This is one part of the list.
# Key:
# Assay in all cases: glycan array binding signal (z-score within array); higher = stronger binding
# Settings in all cases: glycan notation: IUPAC condensed, linker removed
# Gal6S(b1-4)Glc6S = target: Gal6S(b1-4)Glc6S
# Summary of the method: (§1)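 Glycan array binding is given as a within-array Z-score, which can be read as non-binding when negative. The arrays, 3228 of them, came from the Consortium for Functional Glycomics database and were retained only where the protein sequence was available. Z-scores were averaged across arrays of the same protein sequence at different concentrations or buffers and across linkers.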
# Gal6S(b1-4)GlcNAc = target: Gal6S(b1-4)GlcNAc
# Summary of the method: as §1
# Gal6S(b1-4)GlcNAc6S = target: Gal6S(b1-4)GlcNAc6S
# Summary of the method: as §1
# GalNAc(a1-3)Gal = target: GalNAc(a1-3)Gal
# Summary of the method: as §1
# GalNAc(a1-3)GalNAc = target: GalNAc(a1-3)GalNAc
# Summary of the method: as §1
# [1] = target: GalNAc(a1-3)GalNAc(b1-3)Gal(a1-4)Gal(b1-4)Glc
# Summary of the method: as §1
# [2] = target: GalNAc(a1-3)GalNAc(b1-3)Gal(a1-4)Gal(b1-4)GlcNAc
# Summary of the method: as §1
# GalNAc(b1-3)Gal = target: GalNAc(b1-3)Gal
# Summary of the method: as §1
# [3] = target: GalNAc(b1-3)Gal(a1-4)Gal(b1-4)GlcNAc
# Summary of the method: as §1
# [4] = target: GalNAc(b1-3)Gal(a1-4)Gal(b1-4)GlcNAc(b1-3)Gal(b1-4)Glc
# Summary of the method: as §1
# [5] = target: GalNAc(b1-3)Gal(a1-6)Gal(b1-4)Glc
# Summary of the method: as §1
# GalNAc(b1-3)GalNAc = target: GalNAc(b1-3)GalNAc
# Summary of the method: as §1
# GalNAc(b1-3)GlcNAc = target: GalNAc(b1-3)GlcNAc
# Summary of the method: as §1
# GalNAc(b1-4)Gal(b1-4)Glc = target: GalNAc(b1-4)Gal(b1-4)Glc
# Summary of the method: as §1
# GalNAc(b1-4)GlcNAc = target: GalNAc(b1-4)GlcNAc
# Summary of the method: as §1
# [6] = target: GalNAc(b1-4)GlcNAc(b1-2)Man
# Summary of the method: as §1
# [7] = target: GalNAc(b1-4)GlcNAc(b1-2)Man(a1-3)[GalNAc(b1-4)GlcNAc(b1-2)Man(a1-6)]Man(b1-4)GlcNAc(b1-4)GlcNAc
# Summary of the method: as §1
# [8] = target: GalNAc(b1-4)GlcNAc(b1-3)GalNAc(b1-4)GlcNAc
# Summary of the method: as §1
# GalNAc(b1-4)GlcNAc6S = target: GalNAc(b1-4)GlcNAc6S
# Summary of the method: as §1
# GalNAc(b1-6)GalNAc = target: GalNAc(b1-6)GalNAc
# Summary of the method: as §1
# GalNAc3S(b1-4)GlcNAc = target: GalNAc3S(b1-4)GlcNAc
# Summary of the method: as §1
# GalNAc3S(b1-4)GlcNAc3S = target: GalNAc3S(b1-4)GlcNAc3S
# Summary of the method: as §1
# [9] = target: GalNAc3S(b1-4)[Fuc(a1-3)]GlcNAc
# Summary of the method: as §1
# GalNAc4S6S(b1-4)GlcNAc = target: GalNAc4S6S(b1-4)GlcNAc
# Summary of the method: as §1
# GalNAc6S(b1-4)GlcNAc = target: GalNAc6S(b1-4)GlcNAc
# Summary of the method: as §1
# Glc(a1-4)Glc = target: Glc(a1-4)Glc
# Summary of the method: as §1
# [10] = target: Glc(a1-4)Glc(a1-4)Glc(a1-4)Glc
# Summary of the method: as §1
# Glc(a1-6)Glc(a1-6)Glc = target: Glc(a1-6)Glc(a1-6)Glc
# Summary of the method: as §1
# [11] = target: Glc(a1-6)Glc(a1-6)Glc(a1-6)Glc
# Summary of the method: as §1
# Glc(b1-4)Glc = target: Glc(b1-4)Glc
# Summary of the method: as §1
# Glc(b1-6)Glc = target: Glc(b1-6)Glc
# Summary of the method: as §1
# GlcA(b1-3)Gal = target: GlcA(b1-3)Gal
# Summary of the method: as §1
# GlcA(b1-3)GlcNAc = target: GlcA(b1-3)GlcNAc
# Summary of the method: as §1
# GlcA(b1-6)Gal = target: GlcA(b1-6)Gal
# Summary of the method: as §1
# [12] = target: GlcA3S(b1-3)Gal(b1-4)GlcNAc(b1-2)Man
# Summary of the method: as §1
# [13] = target: GlcA3S(b1-3)Gal(b1-4)GlcNAc(b1-3)Gal(b1-4)Glc
# Summary of the method: as §1
# [14] = target: GlcNAc(a1-3)Gal(b1-4)GlcNAc
# Summary of the method: as §1
binder,measurement,setting,value
PX9961H-bth-557-24-557 (Bacteroides thetaiotaomicron) (protein) EETRTEVEKKNYMNNAEEAKDVLLGVYRTNTLDAMYGYYLSILFNLGTDISQVEGSGNENFRIIPTNSFPTTQSEVQQTWAALYTGIYRANDFLERISNKIGSYTTTDKKLATLYIAEARALRGMFYFELVRRFGNVVLMTSTQMSNQNPATYVQSAPEKVYEYIEDDLLYACDILPYATDDQYRESNDYRFSKGAALGLLTKVYATWAGYPVKDESKWEAAAKTARILVESGKHGLLKDYEQLWKNTCNGTWDPTESLIEISFYSPTVSGNSDPVGRIGKWNGVKTTAIAGVRGSCAANVKVVHTFVLDWREDVSDIRRDLSIANYQYTDTKKSLWVAGASDTDESAAEKDADPTKAQKNKQNYTPAKWDIQKYVTTNSFINNDKSNVNWYFLRYADVLLLYAEALNEWKHGPDAEAYNAINAVRRRGYGNPSNTSACDLPQGLDETSFREAVRKERSYELSFEGHRRQDLIRWGIYYKTVQATAKELGYWWEGTGSPNYSVATYTEEGKHELFPIPQRDMDLCIQFNQNPKW,glycan array binding signal (z-score),Gal6S(b1-4)Glc6S,0.304
same,glycan array binding signal (z-score),Gal6S(b1-4)GlcNAc,-0.033
same,glycan array binding signal (z-score),Gal6S(b1-4)GlcNAc6S,-0.62
same,glycan array binding signal (z-score),GalNAc(a1-3)Gal,1.77
same,glycan array binding signal (z-score),GalNAc(a1-3)GalNAc,0.123
same,glycan array binding signal (z-score),[1],-0.566
same,glycan array binding signal (z-score),[2],-0.082
same,glycan array binding signal (z-score),GalNAc(b1-3)Gal,0.096
same,glycan array binding signal (z-score),[3],-0.163
same,glycan array binding signal (z-score),[4],-0.359
same,glycan array binding signal (z-score),[5],-0.266
same,glycan array binding signal (z-score),GalNAc(b1-3)GalNAc,-0.1
same,glycan array binding signal (z-score),GalNAc(b1-3)GlcNAc,-0.542
same,glycan array binding signal (z-score),GalNAc(b1-4)Gal(b1-4)Glc,-0.26
same,glycan array binding signal (z-score),GalNAc(b1-4)GlcNAc,0.014
same,glycan array binding signal (z-score),[6],-0.524
same,glycan array binding signal (z-score),[7],1.86
same,glycan array binding signal (z-score),[8],2.1
same,glycan array binding signal (z-score),GalNAc(b1-4)GlcNAc6S,-0.11
same,glycan array binding signal (z-score),GalNAc(b1-6)GalNAc,-0.526
same,glycan array binding signal (z-score),GalNAc3S(b1-4)GlcNAc,-0.539
same,glycan array binding signal (z-score),GalNAc3S(b1-4)GlcNAc3S,-0.316
same,glycan array binding signal (z-score),[9],-0.317
same,glycan array binding signal (z-score),GalNAc4S6S(b1-4)GlcNAc,-0.391
same,glycan array binding signal (z-score),GalNAc6S(b1-4)GlcNAc,0.123
same,glycan array binding signal (z-score),Glc(a1-4)Glc,-0.332
same,glycan array binding signal (z-score),[10],-0.637
same,glycan array binding signal (z-score),Glc(a1-6)Glc(a1-6)Glc,-0.402
same,glycan array binding signal (z-score),[11],-0.44
same,glycan array binding signal (z-score),Glc(b1-4)Glc,-0.097
same,glycan array binding signal (z-score),Glc(b1-6)Glc,-0.114
same,glycan array binding signal (z-score),GlcA(b1-3)Gal,-0.564
same,glycan array binding signal (z-score),GlcA(b1-3)GlcNAc,-0.211
same,glycan array binding signal (z-score),GlcA(b1-6)Gal,0.07
same,glycan array binding signal (z-score),[12],-0.264
same,glycan array binding signal (z-score),[13],-0.19
same,glycan array binding signal (z-score),[14],-0.289

# Reference: the supplement of paper PMC8728848
